According to doi:10.1101/2024.03.20.585962 (2024):

Key:
[1] = target: BRD3_p5_TAMRA (N-terminal D-Tyr; thioether cyclisation of the N-terminal chloroacetyl group with a cysteine; TAMRA fluorophore (on the C-terminal azide group); N-methylalanine where Figure 3D prints X)
[2] = target: BRD3_p8 (N-terminal D-Tyr; thioether cyclisation of the N-terminal chloroacetyl group with a cysteine; azide group at the C-terminus; N-methylalanine where Figure 3D prints X); test: SPR
[3] = target: BRD3_p10; test: SPR
[4] = target: BRD3_p9 (N-terminal D-Tyr; thioether cyclisation of the N-terminal chloroacetyl group with a cysteine; azide group at the C-terminus; N-methylalanine where Figure 3D prints X); test: SPR
[5] = target: BRD3_p3.2; test: SPR
[6] = target: BRD3_p3.1; test: SPR
[7] = target: BRD3_p6 (N-terminal D-Tyr; thioether cyclisation of the N-terminal chloroacetyl group with a cysteine; azide group at the C-terminus; N-methylalanine where Figure 3D prints X); test: SPR
[8] = target: BRD3_p5; test: SPR
[9] = target: BRD3_p1 (N-terminal D-Tyr; thioether cyclisation of the N-terminal chloroacetyl group with a cysteine; azide group at the C-terminus; N-methylalanine where Figure 3D prints X); test: SPR
[10] = target: BRD3_p7 (N-terminal D-Tyr; thioether cyclisation of the N-terminal chloroacetyl group with a cysteine; azide group at the C-terminus; N-methylalanine where Figure 3D prints X); test: SPR
[11] = target: BRD3_p2 (N-terminal D-Tyr; thioether cyclisation of the N-terminal chloroacetyl group with a cysteine; azide group at the C-terminus; N-methylalanine where Figure 3D prints X); test: SPR
[12] = target: BRD3_p4 (N-terminal D-Tyr; thioether cyclisation of the N-terminal chloroacetyl group with a cysteine; azide group at the C-terminus; N-methylalanine where Figure 3D prints X); test: SPR

Kd [1]: 12 nM
B1: HiBiT-tagged BRD3([…]) (domain or fragment)
chain: AAPMVSKGAESSRSSEESSSDSGSSDSEEERATRLAELQEQLKAVHEQLAALSQAPVNKPKKKKEKKEKEKKKKDKEKEKEKHKVKAEEEKKAKVAPPAKQAQQKKAPAKKANSTTTAGRQLKKG[about 80 residues omitted]QRKPFSASGKKQAAKSKEELAQEKKKELEKRLQDVSGQLSSSKKPARKEKPGSAPSGGPSRLSSSSSSESGSSSSSGSSSDSSDSE

Kd [2]: > 1000 nM
Kd [3]: 250 nM
Kd [4]: 38 nM
Kd [5]: 51 nM
Kd [6]: 680 nM
Kd [7]: 4.2 nM
Kd [8]: 13 nM
Kd [9]: 3.3 nM
Kd [10]: 17 nM
Kd [11]: > 1000 nM
Kd [12]: 5.9 nM
B2: BRD3-L (domain or fragment)
chain: VEAPALPAPAAPMVSKGAESSRSSEESSSDSGSSDSEEERATRLAELQEQLKAVHEQLAALSQAPVNKPKKKKEKKEKEKKKKDKEKEKEKHKVKAEEEKKAKVAPPAKQAQQKKAPAKKANSTTTAGRQLKKG[about 80 residues omitted]QRKPFSASGKKQAAKSKEELAQEKKKELEKRLQDVSGQLSSSKKPARKEKPGSAPSGGPSRLSSSSSSESGSSSSSGSSSDSSDSE
modifications: biotin (biotinylated protein; site not stated)

Each block holds one binder with its values, some of them ahead of it.
